Measurements: article PMC4336329 (PLoS ONE, 2015)
Among all 310,000 compounds or so, about 2,200 (0.71%) showed an effect of 50% or more. Effects have a minus sign here. The list shows a part of the results.

Biological target: human ether-à-go-go-related gene (hERG) potassium channel (human, UniProt Q12809)
Test: primary screen, population patch clamp on CHO cells stably expressing hERG

human ether-à-go-go-related gene (hERG) potassium channel, sequence (Q12809 whole entry, looked up): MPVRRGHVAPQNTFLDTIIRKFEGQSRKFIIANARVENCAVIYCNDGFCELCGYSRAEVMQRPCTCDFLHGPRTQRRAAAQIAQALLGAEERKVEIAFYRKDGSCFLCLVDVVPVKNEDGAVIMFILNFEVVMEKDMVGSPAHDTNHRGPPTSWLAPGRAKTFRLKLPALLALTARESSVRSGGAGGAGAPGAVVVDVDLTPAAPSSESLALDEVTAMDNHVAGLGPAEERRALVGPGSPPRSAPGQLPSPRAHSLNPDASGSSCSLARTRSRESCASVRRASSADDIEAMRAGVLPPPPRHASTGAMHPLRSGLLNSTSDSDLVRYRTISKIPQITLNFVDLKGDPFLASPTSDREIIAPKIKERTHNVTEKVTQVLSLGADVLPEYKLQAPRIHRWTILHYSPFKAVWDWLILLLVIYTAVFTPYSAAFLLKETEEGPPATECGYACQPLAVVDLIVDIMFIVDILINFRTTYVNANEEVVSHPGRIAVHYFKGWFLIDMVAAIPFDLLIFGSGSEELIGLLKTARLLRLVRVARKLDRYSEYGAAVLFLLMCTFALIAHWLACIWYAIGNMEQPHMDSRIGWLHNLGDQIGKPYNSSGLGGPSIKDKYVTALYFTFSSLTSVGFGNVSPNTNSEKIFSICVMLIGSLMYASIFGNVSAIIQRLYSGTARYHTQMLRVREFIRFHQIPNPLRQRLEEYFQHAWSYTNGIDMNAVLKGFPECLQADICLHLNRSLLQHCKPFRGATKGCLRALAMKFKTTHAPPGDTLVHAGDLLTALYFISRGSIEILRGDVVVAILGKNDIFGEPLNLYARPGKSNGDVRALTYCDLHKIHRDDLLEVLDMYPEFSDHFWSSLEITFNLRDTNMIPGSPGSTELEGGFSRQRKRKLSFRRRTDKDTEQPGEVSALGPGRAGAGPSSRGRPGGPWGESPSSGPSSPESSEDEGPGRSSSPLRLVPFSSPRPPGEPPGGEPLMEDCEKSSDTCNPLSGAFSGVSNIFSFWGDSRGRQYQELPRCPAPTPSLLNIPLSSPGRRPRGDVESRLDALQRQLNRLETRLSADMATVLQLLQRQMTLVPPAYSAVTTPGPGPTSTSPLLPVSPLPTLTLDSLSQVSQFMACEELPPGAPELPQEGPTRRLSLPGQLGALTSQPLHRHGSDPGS

Row | SMILES | hERG current change (%, negative = inhibition) at 1uM
1 | COc1ccc(NC(=O)CC(C)CC(=O)NCc2ccc(F)cc2)c(OC)c1 (stereo not shown) | 9.13%
2 | CCCN1CCC(Oc2cccc(C(=O)NCCc3ccccc3)c2)CC1 | -11.5%
3 | Cc1nc2ccccc2c(=O)n1NC(=O)c1ccccc1 | 3.94%
4 | O=C(NNC(=O)c1cccs1)c1ccc(Cl)cc1 | 9.36%
5 | Clc1ccc(Cn2ncc3c(NCc4cccnc4)ncnc32)cc1 | -10.2%
6 | CS(=O)(=O)c1ccc2nc(NC(=O)CCNC(=O)c3ccccc3Cl)sc2c1 | 10.4%
7 | CCOc1ccc(NC(=O)Cn2nnc(C(=O)NCc3ccccc3OC)c2N)cc1 | 11%
8 | O=C1C[C@@H](c2ccccc2)Oc2cc(O)cc(O)c21 | 0.714%
9 | NS(=O)(=O)c1ccc(NC(=O)C2CCCN(S(=O)(=O)c3ccc(F)cc3)C2)cc1 (stereo not shown) | 14.7%
10 | Cc1ccc2[nH]c(=O)c(CN(Cc3ccco3)C(=O)c3ccncc3)cc2c1 | -0.51%
11 | CCOCCCNC(=O)C1CCN(S(=O)(=O)N2CCCC2)CC1 | -0.37%
12 | Cc1nc2sc(-c3ccccc3)cc2c(=O)n1N | 11.2%
13 | Cc1[nH]c2ccccc2c1C(=O)COc1ccccc1F | 7.33%
14 | Cc1ccc(C(=O)Nc2nccs2)s1 | 7.67%
15 | Cc1ccc(S(=O)(=O)c2nc(S(C)(=O)=O)sc2N2CCN(C)CC2)cc1 | 14.2%
16 | CN(C(=S)Nc1ccc(F)cc1)C1(c2ccccc2Cl)CCCCC1=O (stereo not shown) | 4.47%
17 | CCNC(=O)COC(=O)/C=C/c1cccc([N+](=O)[O-])c1 | 12.3%
18 | COc1ccc2nc(SCC(=O)Nc3ccc(S(=O)(=O)Nc4onc(C)c4C)cc3)[nH]c2c1 | -0.668%
19 | O=C1/C(=C/c2cccs2)N=C(c2cccs2)N1Nc1ccccc1 | -9.77%
20 | Cc1ccc(/C=C/S(=O)(=O)N2CCC(C(=O)O)CC2)cc1 | 24.8%
21 | CCN1CCN(c2c(Cl)cccc2NC(=O)c2ccco2)CC1 | -70.7%
22 | COCCn1c(=S)[nH]c2cc(C(=O)N3CCN(c4ccc(F)cc4)CC3)ccc2c1=O | -11.6%

Row | SMILES | hERG current change (%, negative = inhibition) at 1uM
23 | CCn1cnc2scc(-c3ccc(OC)cc3)c2c1=O | 8.17%
24 | Cl.c1ccc(-c2cc(-c3ccc(N4CCOCC4)cc3)nc3ccccc23)cc1 | 5.29%
25 | CC1=NN(c2ccccc2)C(=O)C1C=Nc1ccccc1O (stereo not shown) | 9.8%
26 | O=C(NCC1CCCO1)C12CN(Cc3ccccc3)CC1C(c1cccc([N+](=O)[O-])c1)=NO2 (stereo not shown) | 1.43%
27 | O=C(NNC(=O)c1ccncc1)NC1CCCCC1 | 23.3%
28 | CCSc1ccccc1C(=O)Nc1ccc(S(=O)(=O)NC(C)=O)cc1 | 14.8%
29 | Cc1ccc2c(c1)COc1c3ccc(C(=O)NCCO)cc3nn1-2 | 5.85%
30 | CCn1c(SCC(=O)Nc2ccc(C(C)=O)cc2)nc2nc3c(cc2c1=O)CCCC3 | -1.29%
31 | O=C1[C@H](CC[C@H](O)c2ccc(F)cc2)[C@@H](c2ccc(O)cc2)N1c1ccc(F)cc1 | 9.18%
32 | CCCc1cc(=O)[nH]c(SCC(=O)N(CC)c2c(N)n(Cc3ccccc3)c(=O)[nH]c2=O)n1 | 14%
33 | CC(=O)NS(=O)(=O)c1ccc(N=NN2CCOCC2)cc1 | 3.59%
34 | Cc1cccc(CCNS(=O)(=O)c2ccc(S(=O)(=O)N3CCCCC3)cc2)c1 | 2.57%
35 | C=C(C)C(=O)Nc1cccc(C2=NOC3(C2)C[C@@H](C(N)=O)N(C(=O)CCCCC)C3)c1 (stereo partly shown) | -0.596%
36 | C/C(=N/Nc1ccc(C(=O)O)cc1)c1ccc(O)c(O)c1O | 14.2%
37 | CCn1cc(CNC(=O)CCSc2nc(-c3ccco3)cc(C(F)(F)F)n2)cn1 | 4.78%
38 | COc1cccc(C(=O)NOCc2ccccc2)c1OC | 10.2%
39 | Cc1ccc(S(=O)(=O)Oc2ccc(/C=N/NC(=O)c3ccncc3)cc2)cc1 | 3.02%
40 | Cc1cccc(NS(=O)(=O)c2ccc(Br)s2)n1 | 9.58%
41 | Cc1sc2nc[nH]c(=S)c2c1-c1ccccc1 | 11.3%
42 | O=C(NNC(=O)C1C2C=CC(C2)C1C(=O)O)c1ccccc1 (stereo not shown) | 18.4%
43 | O=C(NC1CCCC1)c1cc2c(ccc3ccccc32)o1 | 5.48%
